These are yes or no findings as the source states them, for the method shown. In cells and extracts the contact can be indirect. Some binding calls cover weakened binding; strength is not graded here.
T1: MEIOC (Meiosis specific with coiled-coil domain), endogenous in mouse testis (mouse (endogenous in testis)) (UniProt A2AG06)
T1 sequence: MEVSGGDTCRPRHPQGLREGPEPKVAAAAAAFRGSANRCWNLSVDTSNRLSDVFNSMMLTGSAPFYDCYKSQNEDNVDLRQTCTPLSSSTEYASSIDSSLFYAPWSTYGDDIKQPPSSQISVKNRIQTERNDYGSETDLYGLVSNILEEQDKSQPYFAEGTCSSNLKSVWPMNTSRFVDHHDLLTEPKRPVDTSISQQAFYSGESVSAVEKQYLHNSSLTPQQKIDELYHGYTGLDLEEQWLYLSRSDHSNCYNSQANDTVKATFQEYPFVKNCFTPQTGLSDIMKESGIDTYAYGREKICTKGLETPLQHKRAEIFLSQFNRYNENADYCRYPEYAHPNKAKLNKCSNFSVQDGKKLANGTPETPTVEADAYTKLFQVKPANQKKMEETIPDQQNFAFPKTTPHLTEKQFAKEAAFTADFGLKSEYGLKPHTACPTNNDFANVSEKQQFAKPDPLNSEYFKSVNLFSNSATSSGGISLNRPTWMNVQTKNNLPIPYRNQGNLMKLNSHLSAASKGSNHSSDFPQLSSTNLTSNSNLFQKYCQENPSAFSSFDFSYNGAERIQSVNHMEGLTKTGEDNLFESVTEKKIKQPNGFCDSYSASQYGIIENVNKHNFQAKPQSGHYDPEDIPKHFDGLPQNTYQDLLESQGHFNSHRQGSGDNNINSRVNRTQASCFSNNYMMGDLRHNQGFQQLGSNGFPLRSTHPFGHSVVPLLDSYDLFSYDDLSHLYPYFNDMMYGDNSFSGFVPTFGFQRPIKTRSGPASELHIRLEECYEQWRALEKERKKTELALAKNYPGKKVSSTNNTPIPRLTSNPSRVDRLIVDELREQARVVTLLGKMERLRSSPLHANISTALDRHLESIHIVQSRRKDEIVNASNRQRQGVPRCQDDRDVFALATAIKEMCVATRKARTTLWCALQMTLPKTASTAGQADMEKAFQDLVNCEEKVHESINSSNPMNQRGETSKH

T2: YTHDC2, endogenous in mouse testis (mouse (endogenous in testis)) (UniProt B2RR83)
T2 sequence: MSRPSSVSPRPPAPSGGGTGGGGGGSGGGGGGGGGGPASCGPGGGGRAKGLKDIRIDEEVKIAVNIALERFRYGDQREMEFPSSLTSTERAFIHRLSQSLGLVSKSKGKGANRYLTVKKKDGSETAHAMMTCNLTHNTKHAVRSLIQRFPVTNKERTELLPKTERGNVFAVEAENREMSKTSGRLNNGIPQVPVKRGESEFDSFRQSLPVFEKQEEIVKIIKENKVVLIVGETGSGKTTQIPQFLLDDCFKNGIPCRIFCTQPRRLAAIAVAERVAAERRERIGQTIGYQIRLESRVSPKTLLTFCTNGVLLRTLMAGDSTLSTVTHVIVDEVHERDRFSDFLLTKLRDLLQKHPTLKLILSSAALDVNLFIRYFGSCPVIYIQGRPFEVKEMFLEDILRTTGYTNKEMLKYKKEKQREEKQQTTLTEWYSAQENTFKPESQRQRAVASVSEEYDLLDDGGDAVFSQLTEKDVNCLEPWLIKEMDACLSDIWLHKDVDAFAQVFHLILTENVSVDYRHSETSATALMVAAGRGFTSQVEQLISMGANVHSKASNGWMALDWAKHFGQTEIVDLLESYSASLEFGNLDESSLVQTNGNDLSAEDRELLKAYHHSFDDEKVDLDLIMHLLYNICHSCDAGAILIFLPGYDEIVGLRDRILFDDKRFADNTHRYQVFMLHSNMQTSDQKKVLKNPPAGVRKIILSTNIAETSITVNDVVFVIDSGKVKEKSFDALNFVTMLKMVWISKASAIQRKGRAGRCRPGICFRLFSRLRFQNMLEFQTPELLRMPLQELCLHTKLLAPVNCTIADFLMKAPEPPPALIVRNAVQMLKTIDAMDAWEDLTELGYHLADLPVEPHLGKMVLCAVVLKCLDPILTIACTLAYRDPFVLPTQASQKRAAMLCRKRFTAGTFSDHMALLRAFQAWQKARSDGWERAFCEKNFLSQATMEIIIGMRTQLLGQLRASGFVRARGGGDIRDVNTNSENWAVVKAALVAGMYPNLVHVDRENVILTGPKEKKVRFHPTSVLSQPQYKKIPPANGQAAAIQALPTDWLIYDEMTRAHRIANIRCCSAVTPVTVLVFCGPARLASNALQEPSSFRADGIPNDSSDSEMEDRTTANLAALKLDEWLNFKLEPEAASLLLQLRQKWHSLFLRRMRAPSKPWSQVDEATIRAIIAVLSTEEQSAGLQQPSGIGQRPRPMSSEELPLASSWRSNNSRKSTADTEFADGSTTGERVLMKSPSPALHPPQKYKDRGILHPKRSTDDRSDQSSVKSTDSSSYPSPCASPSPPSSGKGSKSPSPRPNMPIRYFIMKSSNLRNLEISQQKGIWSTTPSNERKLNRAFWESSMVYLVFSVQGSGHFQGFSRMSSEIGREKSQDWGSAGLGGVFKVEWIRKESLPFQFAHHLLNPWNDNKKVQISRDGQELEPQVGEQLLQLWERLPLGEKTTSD

B1: YTHDC2, endogenous in mouse testis (protein, UniProt B2RR83 1-1445)
chain: MSRPSSVSPRPPAPSGGGTGGGGGGSGGGGGGGGGGPASCGPGGGGRAKGLKDIRIDEEVKIAVNIALERFRYGDQREMEFPSSLTSTERAFIHRLSQSLGLVSKSKGKGANRYLTVKKKDGSETAHAMMTCNLTHNTKHAVRSLIQRFPVTNKERTELLPKTERGNVFAVEAENREMSKTSGRLNNGIPQVPVKRGESEFDSFRQSLPVFEKQEEIVKIIKENKVVLIVGETGSGKTTQIPQFLLDDCFKNGIPCRIFCTQPRRLAAIAVAERVAAERRERIGQTIGYQIRLESRVSPKTLLTFCTNGVLLRTLMAGDSTLSTVTHVIVDEVHERDRFSDFLLTKLRDLLQKHPTLKLILSSAALDVNLFIRYFGSCPVIYIQGRPFEVKEMFLEDILRTTGYTNKEMLKYKKEKQREEKQQTTLTEWYSAQENTFKPESQRQRAVASVSEEYDLLDDGGDAVFSQLTEKDVNCLEPWLIKEMDACLSDIWLHKDVDAFAQVFHLILTENVSVDYRHSETSATALMVAAGRGFTSQVEQLISMGANVHSKASNGWMALDWAKHFGQTEIVDLLESYSASLEFGNLDESSLVQTNGNDLSAEDRELLKAYHHSFDDEKVDLDLIMHLLYNICHSCDAGAILIFLPGYDEIVGLRDRILFDDKRFADNTHRYQVFMLHSNMQTSDQKKVLKNPPAGVRKIILSTNIAETSITVNDVVFVIDSGKVKEKSFDALNFVTMLKMVWISKASAIQRKGRAGRCRPGICFRLFSRLRFQNMLEFQTPELLRMPLQELCLHTKLLAPVNCTIADFLMKAPEPPPALIVRNAVQMLKTIDAMDAWEDLTELGYHLADLPVEPHLGKMVLCAVVLKCLDPILTIACTLAYRDPFVLPTQASQKRAAMLCRKRFTAGTFSDHMALLRAFQAWQKARSDGWERAFCEKNFLSQATMEIIIGMRTQLLGQLRASGFVRARGGGDIRDVNTNSENWAVVKAALVAGMYPNLVHVDRENVILTGPKEKKVRFHPTSVLSQPQYKKIPPANGQAAAIQALPTDWLIYDEMTRAHRIANIRCCSAVTPVTVLVFCGPARLASNALQEPSSFRADGIPNDSSDSEMEDRTTANLAALKLDEWLNFKLEPEAASLLLQLRQKWHSLFLRRMRAPSKPWSQVDEATIRAIIAVLSTEEQSAGLQQPSGIGQRPRPMSSEELPLASSWRSNNSRKSTADTEFADGSTTGERVLMKSPSPALHPPQKYKDRGILHPKRSTDDRSDQSSVKSTDSSSYPSPCASPSPPSSGKGSKSPSPRPNMPIRYFIMKSSNLRNLEISQQKGIWSTTPSNERKLNRAFWESSMVYLVFSVQGSGHFQGFSRMSSEIGREKSQDWGSAGLGGVFKVEWIRKESLPFQFAHHLLNPWNDNKKVQISRDGQELEPQVGEQLLQLWERLPLGEKTTSD
B2: MEIOC (Meiosis specific with coiled-coil domain), endogenous in mouse testis (protein, UniProt A2AG06 1-965)
chain: MEVSGGDTCRPRHPQGLREGPEPKVAAAAAAFRGSANRCWNLSVDTSNRLSDVFNSMMLTGSAPFYDCYKSQNEDNVDLRQTCTPLSSSTEYASSIDSSLFYAPWSTYGDDIKQPPSSQISVKNRIQTERNDYGSETDLYGLVSNILEEQDKSQPYFAEGTCSSNLKSVWPMNTSRFVDHHDLLTEPKRPVDTSISQQAFYSGESVSAVEKQYLHNSSLTPQQKIDELYHGYTGLDLEEQWLYLSRSDHSNCYNSQANDTVKATFQEYPFVKNCFTPQTGLSDIMKESGIDTYAYGREKICTKGLETPLQHKRAEIFLSQFNRYNENADYCRYPEYAHPNKAKLNKCSNFSVQDGKKLANGTPETPTVEADAYTKLFQVKPANQKKMEETIPDQQNFAFPKTTPHLTEKQFAKEAAFTADFGLKSEYGLKPHTACPTNNDFANVSEKQQFAKPDPLNSEYFKSVNLFSNSATSSGGISLNRPTWMNVQTKNNLPIPYRNQGNLMKLNSHLSAASKGSNHSSDFPQLSSTNLTSNSNLFQKYCQENPSAFSSFDFSYNGAERIQSVNHMEGLTKTGEDNLFESVTEKKIKQPNGFCDSYSASQYGIIENVNKHNFQAKPQSGHYDPEDIPKHFDGLPQNTYQDLLESQGHFNSHRQGSGDNNINSRVNRTQASCFSNNYMMGDLRHNQGFQQLGSNGFPLRSTHPFGHSVVPLLDSYDLFSYDDLSHLYPYFNDMMYGDNSFSGFVPTFGFQRPIKTRSGPASELHIRLEECYEQWRALEKERKKTELALAKNYPGKKVSSTNNTPIPRLTSNPSRVDRLIVDELREQARVVTLLGKMERLRSSPLHANISTALDRHLESIHIVQSRRKDEIVNASNRQRQGVPRCQDDRDVFALATAIKEMCVATRKARTTLWCALQMTLPKTASTAGQADMEKAFQDLVNCEEKVHESINSSNPMNQRGETSKH

What was measured:
[1] = target: T1, MEIOC (Meiosis specific with coiled-coil domain), endogenous in mouse testis (mouse (endogenous in testis)); assay: co-IP; IP of YTHDC2 or of MEIOC from postnatal mouse testis extracts, western blot; also after benzonase treatment; binding buffer 25 mM Tris-HCl pH 7.5, 150 mM NaCl, 2 h at 4 °C
[2] = target: T2, YTHDC2, endogenous in mouse testis (mouse (endogenous in testis)); assay: as above

Binder	binding [1]	binding [2]
B1	binds	–
B2	–	binds
